From the supplement of paper PMC4967469

Tests used:
Assay in all cases: Viability of human cancer cell lines after 72 h of drug (GDSC screen)
piperlongumine = compound: COc1cc(/C=C/C(=O)N2CCC=CC2=O)cc(OC)c1OC [piperlongumine]; settings: top dose 10 µM
Protocol: (§1)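 Human cancer cell lines in 384-well plates, medium with 10% serum, drug for 72 h over a 256-fold dose range (nine 2-fold or five 4-fold steps up to the top dose). Adherent lines were fixed and stained with the nucleic acid dye Syto60, suspension lines read with resazurin; signal relative to control wells, capped at 0 and 100%. One two-parameter sigmoid per drug and line, fitted in a mixed model over all curves with the slope shared within a line.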

ABT-263 = compound: CC1(C)CCC(c2ccc(Cl)cc2)=C(CN2CCN(c3ccc(C(=O)NS(=O)(=O)c4ccc(N[C@H](CCN5CCOCC5)CSc5ccccc5)c(S(=O)(=O)C(F)(F)F)c4)cc3)CC2)C1 [ABT-263]; settings: top dose 2 µM; top dose inferred
Protocol: as §1

GW 441756 = compound: Cn1cc(/C=C2\C(=O)Nc3cccnc32)c2ccccc21 [GW 441756]; settings: top dose 2 µM; top dose inferred
Protocol: as §1

PIK-93 = compound: CC(=O)Nc1nc(C)c(-c2ccc(Cl)c(S(=O)(=O)NCCO)c2)s1 [PIK-93]; settings: top dose 20 µM
Protocol: as §1

Cell Line	AUC (piperlongumine)	IC50 (piperlongumine)	AUC (ABT-263)	IC50 (ABT-263)	AUC (GW 441756)	IC50 (GW 441756)	AUC (PIK-93)	IC50 (PIK-93)
EN (endometrium, adherent)	0.945	> 10 µM	0.96	> 2 µM	0.919	> 2 µM	0.851	> 20 µM
EBC-1 (lung squamous cell carcinoma, adherent)	0.706	2.58 µM	0.77	0.856 µM	0.974	> 2 µM	0.949	> 20 µM
G-402 (soft tissue, adherent)	0.687	2.52 µM	0.923	> 2 µM	0.942	> 2 µM	0.816	16 µM
NCI-H358 (lung adenocarcinoma, adherent)	0.833	7.48 µM	0.953	> 2 µM	0.979	> 2 µM	0.808	11.8 µM
NCI-H810 (large cell lung carcinoma, adherent)	0.716	2.47 µM	0.976	> 2 µM	0.988	> 2 µM	0.851	14.3 µM
JHU-022 (head and neck, adherent)	0.692	2.52 µM	0.946	> 2 µM	0.876	> 2 µM	0.97	> 20 µM
CHP-212 (neuroblastoma, adherent)	0.79	4.08 µM	0.767	0.691 µM	0.944	> 2 µM	0.984	> 20 µM
CHSA8926 (chondrosarcoma, adherent)	0.788	6.54 µM	0.911	> 2 µM	0.925	> 2 µM	0.759	9.87 µM
MOG-G-UVW (glioma, adherent)	0.554	0.872 µM	0.959	> 2 µM	0.969	> 2 µM	0.858	15.7 µM
RERF-LC-Sq1 (lung squamous cell carcinoma, adherent)	0.945	> 10 µM	0.798	1.52 µM	0.921	> 2 µM	0.911	> 20 µM
RCC-AB (kidney, adherent)	0.665	2.09 µM	0.934	> 2 µM	0.955	> 2 µM	0.802	13.6 µM
HDQ-P1 (breast, adherent)	0.845	9.4 µM	0.903	> 2 µM	0.975	> 2 µM	0.894	> 20 µM
RCC-JW (kidney, adherent)	0.677	1.98 µM	0.83	1.3 µM	0.901	> 2 µM	0.838	14 µM
MDA-MB-453 (breast, adherent)	0.787	4.89 µM	0.981	> 2 µM	0.963	> 2 µM	0.606	2.52 µM
T-T (oesophagus, adherent)	0.787	4.34 µM	0.912	> 2 µM	0.973	> 2 µM	0.831	12.6 µM
SNU-C5 (large intestine, adherent)	0.716	2.75 µM	0.964	> 2 µM	0.916	> 2 µM	0.856	18.7 µM

Cell Line	AUC (piperlongumine)	IC50 (piperlongumine)	AUC (ABT-263)	IC50 (ABT-263)	AUC (GW 441756)	IC50 (GW 441756)	AUC (PIK-93)	IC50 (PIK-93)
huH-1 (liver, adherent)	0.84	9.43 µM	0.845	1.97 µM	0.882	> 2 µM	0.984	> 20 µM
COLO-678 (large intestine, semi-adherent)	0.898	> 10 µM	0.97	> 2 µM	0.94	> 2 µM	0.952	> 20 µM
D-566MG (glioma, adherent)	0.655	1.67 µM	0.921	> 2 µM	0.986	> 2 µM	0.771	7.56 µM
RCC-MF (kidney, adherent)	0.689	2.5 µM	0.568	0.203 µM	0.797	1.29 µM	0.596	2.48 µM
SW1783 (glioma, adherent)	0.696	2.08 µM	0.952	> 2 µM	0.991	> 2 µM	0.942	> 20 µM
A2780 (ovary, semi-adherent)	0.867	9.52 µM	0.964	> 2 µM	0.98	> 2 µM	0.639	3.07 µM
U-118-MG (glioma, adherent)	0.746	3.61 µM	0.895	> 2 µM	0.985	> 2 µM	0.877	> 20 µM
SNU-449 (liver, adherent)	0.81	5.88 µM	0.982	> 2 µM	0.97	> 2 µM	0.789	9.73 µM
Hs746T (stomach, adherent)	0.651	1.9 µM	0.932	> 2 µM	0.945	> 2 µM	0.919	> 20 µM
Hs939-T (melanoma, adherent)	0.751	3.56 µM	0.963	> 2 µM	0.909	> 2 µM	0.961	> 20 µM
OVCAR-5 (ovary, adherent)	0.743	3.66 µM	0.903	> 2 µM	0.825	1.54 µM	0.853	> 20 µM
SNU-387 (liver, adherent)	0.795	5.41 µM	0.964	> 2 µM	0.899	> 2 µM	0.577	2.1 µM
FU-OV-1 (ovary, adherent)	0.8	6.68 µM	0.963	> 2 µM	0.978	> 2 µM	0.832	18.7 µM
BT-483 (breast, adherent)	0.888	> 10 µM	0.916	> 2 µM	0.976	> 2 µM	0.838	> 20 µM
FTC-133 (thyroid, adherent)	0.801	5.45 µM	0.877	> 2 µM	0.986	> 2 µM	0.985	> 20 µM

IC50 is the fitted dose that halves viability relative to control wells, and lower means more sensitive; a fit beyond the top or the lowest dose is shown as a bound at that dose. AUC, from the same fit, is the share of area under the viability curve across the 256-fold dose range; it is 1 without any effect and falls as sensitivity rises. For some assays here: Where the top dose is marked as inferred, it was derived from the fitted curves, not read from the paper.
